Drawing on publication PMC12136788, this text covers binding signal for 14 molecules.

The list shows a part of the results.

B1: chr13:108210595:108210700:-|CDS|ENSG00000174405|unk|total|mutant (ssRNA)
RNA: GGGAGUUCUACAGUCCGACGAUCUCAGCACUUGAGCAAAAGUGGCUUAUACGGAUGAUCAUAAAGGAUUUAAAGCUUGGUGUCCGUCAGCAAACUAUCUUUUCUGUUUUUCAUAAUGAUGCUGCUGAGUUGCAUAAUGUCACUCAACAGAGGAUUGAGCAUCA
B2: ENSG00000124766:be:win_2201|3pUTR|ENSG00000124766|bound_else_gene|NA|bound_elsewhere_windowed (ssRNA)
RNA: GGGAGUUCUACAGUCCGACGAUCGCGGGAGCUAGGGGCGGGGGCGGAGGAGGACACGAACUGGAAGGGGGUUCACGGUCAAACUGAAAUGGAUUUGCACGUUGGGGAGCUGGCGGCGGCGGCUGCUGGGCCUCCGCCUUCUUUCAACAGAGGAUUGAGCAUCA
B3: chr6:112122013:112122201:-|CDS|ENSG00000112769|control|control|control (ssRNA)
RNA: GGGAGUUCUACAGUCCGACGAUCCCCAGAGCGGAAUACUCCAAGAAACUCUCAUUGCCACCUUUCCAACAGCCCUAGAGCAAUAGAGCACGCCUAUCAAUAUGGAGGAACAGCCAACAGCCGCCAAGAGUUUGAACACUUAAACAACAGAGGAUUGAGCAUCA
B4: chrX:42777473:42778079:-|CDS|ENSG00000102055|control|control|control (ssRNA)
RNA: GGGAGUUCUACAGUCCGACGAUCCGGCAGUUCGAAAUGAGAAGAAGGCUUCACUACAACGAAGAAUUGAACAUCAAAUUAGCUAGACAAUUAAUGUGGAAAGAGCUACAAAGUGAAGAUAAUGAAAACGAAGAAACGCCACAACAACAGAGGAUUGAGCAUCA
B5: chr17:64039079:64045293:-|three_prime_utr|ENSG00000178607|control|control|control (ssRNA)
RNA: GGGAGUUCUACAGUCCGACGAUCUUUCUUGGGUGUGUCCUCUGUGGUUUGGUUACACUGAUGUGUGUUUCAUUUUUGUUCCCUAGAGUGACAGGUGAGUGAUGGUGUCGUGCUCUAGGUGGUCAUUUCUGACCUGGGUGUGAUCAACAGAGGAUUGAGCAUCA
B6: ENSG00000070961:be:win_4551|3pUTR|ENSG00000070961|bound_else_gene|NA|bound_elsewhere_windowed (ssRNA)
RNA: GGGAGUUCUACAGUCCGACGAUCAAUGAAAGAUGCUUGAAAUGCUUUUGUUAUUUCAGGCAAAUCAAAUUAAAUCAGACUAUCAAACUACAAGAGAACCUUAGUCUUUUUUGUUUUUGUCUAAACAUGUUAGUUUAGUGAUGUCAACAGAGGAUUGAGCAUCA
B7: ENSG00000136451:be:win_301|CDS|ENSG00000136451|bound_else_gene|NA|bound_elsewhere_windowed (ssRNA)
RNA: GGGAGUUCUACAGUCCGACGAUCUUGGUGUCCCGGCCAAAGAAAACCCCCACCACGGUGGUUCCCCUUAUCUCUACCAUCGCUGGGGACAGCAGCCGAACUUCGUUGGUCUCGACCAUUGCAGGCAUCUUGUCAACAGUCACUCAACAGAGGAUUGAGCAUCA
B8: chr5:80438700:80438808:+|CDS|ENSG00000039319|unk|FALSE|unique (ssRNA)
RNA: GGGAGUUCUACAGUCCGACGAUCAGAUACAAUAGAAAGUGAACCCAGCACAGCAGAUACCGUUGUUCCAAUCACUUGUGCUAUAGAUUCUACAGCUGAUCCACAGGUUAGCUUCAACUCUAAUUACAUUGAUAUAGAAAGUAACAACAGAGGAUUGAGCAUCA
B9: ENSG00000198589:be:win_4001|CDS|ENSG00000198589|bound_else_gene|NA|bound_elsewhere_windowed (ssRNA)
RNA: GGGAGUUCUACAGUCCGACGAUCGAAGCCAUUCAACAAAGACAGUUAUGGACUUCGUGAAUAGCAGUGAUAAUGUCAUCUUUGUACACAACACAAUUCAUCUCAUCUCUCAAGUGAUGGACAAUAUGGUCAUGGCUUGUGGGGCAACAGAGGAUUGAGCAUCA
B10: chr3:149318497:149321477:-|three_prime_utr|ENSG00000163762|control|control|control (ssRNA)
RNA: GGGAGUUCUACAGUCCGACGAUCGACAAAAUGUUUUCCAUUAUCAAGACAUGGCCAUCUAUCUAAAUAUUAUAUCAACUGUGUAGACUUGAGGGCAAUAUUGAAAUGAUGGUGCUUUCUGCAUUUGGUGUUUAUUUGUAAAAACAACAGAGGAUUGAGCAUCA
B11: chr19:2933217:2933488:-|three_prime_utr|ENSG00000175691|control|control|control (ssRNA)
RNA: GGGAGUUCUACAGUCCGACGAUCGACCUGGGAGAGUGUUCAACCGUAAAACCUUGUUGUAAAUGUGAGAAACGUUAUUUAUGUAGAGCAUGUAGGAAAACCUGGUAUAGCACUUAUUUUGUACCUAAAAAUUCAGAGUAGGAGCAACAGAGGAUUGAGCAUCA
B12: chr3:53865378:53865479:+|3pUTR|ENSG00000056736|unk|total|mutant (ssRNA)
RNA: GGGAGUUCUACAGUCCGACGAUCAUUACAGGGAAAAAACGUGUGAUGAUCCUGAAGCUUACUAUGCAGCCUACAAACAGCCUCCGUAAUUAAAACAUUUUAUACCAAUAAAAUUUUCAAAUAUUGCUAACUAAUGCCGCAUUACAACAGAGGAUUGAGCAUCA
B13: ENSG00000107863:be:win_6001|3pUTR|ENSG00000107863|bound_else_gene|NA|bound_elsewhere_windowed (ssRNA)
RNA: GGGAGUUCUACAGUCCGACGAUCUUGCACUGUGAAAUAGCUUUACAGUGCAUUACUACAGCCAGAAGAACAUAUAUAUAUAUAUAUAUAUUUAAAAAUAUAUCGGAUAGUUGUAUACAAAUGAGCAAGGUAUUUGUUGCAACUCAACAGAGGAUUGAGCAUCA
B14: chr13:101061967:101062118:-|CDS|ENSG00000102452|control|control|control (ssRNA)
RNA: GGGAGUUCUACAGUCCGACGAUCCAUCCGGAAGAGCUUGCAGCUGGAGGAACUCCUGGCGAGGGAGCAGCUGGAGUACACCAUAGAGGAGGAGGUGGCCAAGCAGACCAUCCGCAUGUGGCUCAAGAAGUGCCUGAAGCGCAUCAACAGAGGAUUGAGCAUCA

This experiment addresses T1, UNK ZnF1-6 (called full-length) (human, UniProt Q9C0B0 30-357).
T1 sequence: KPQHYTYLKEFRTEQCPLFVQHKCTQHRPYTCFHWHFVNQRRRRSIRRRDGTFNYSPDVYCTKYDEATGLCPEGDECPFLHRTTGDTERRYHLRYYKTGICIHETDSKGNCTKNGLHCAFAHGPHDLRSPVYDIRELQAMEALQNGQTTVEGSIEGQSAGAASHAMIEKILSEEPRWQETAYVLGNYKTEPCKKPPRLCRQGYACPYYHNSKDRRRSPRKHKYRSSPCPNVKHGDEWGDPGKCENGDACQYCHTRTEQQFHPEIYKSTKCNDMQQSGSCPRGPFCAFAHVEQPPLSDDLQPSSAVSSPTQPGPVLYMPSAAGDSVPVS
Put plainly: nsRBNS (natural sequence RNA bind-n-seq); RBNS binding buffer (assumed for nsRBNS): 25 mM Tris pH 7.5, 150 mM KCl, 3 mM MgCl2, 0.01% Triton X-100, 500 ug/ml BSA, 20 U/ml SUPERase-In, 4 C; UNK is unkempt and MSI1 is Musashi-1; names of the RNAs are library labels; protein concentration not given here; high values mean tight binding.
In turn, B1 gave a binding signal of 0.258 enrichment R.
The molecule B2 had a binding signal of 0.949 enrichment R.
B3 displayed a binding signal of 0.566 enrichment R.
To B4 belongs 1.23 enrichment R.
B5 yielded a binding signal of 0.612 enrichment R.
With B6 the figure was 1.08 enrichment R.
With B7, the binding signal is 0.598 enrichment R.
On to B8, for which the binding signal is 0.559 enrichment R.
For B9, the binding signal was 0.409 enrichment R.
With B10 the figure was 0.481 enrichment R; with B11, 0.615 enrichment R; with B12, 0.406 enrichment R.
Regarding B13, the binding signal is 0.368 enrichment R.
To B14 belongs 1.01 enrichment R.
